Experimental data published in the supplement of paper PMC10600219.
Counter-ions that a name gives are not always drawn. In all, about 2,800 compounds were measured (“cell viability relative to vehicle”: median about 1.1, lowest 2% from about 0.19 on). Some of the results follow.

tested on: NCI-H2228 parental; test: cell viability relative to vehicle (fraction of vehicle); NCI-H2228 is an ALK-positive lung cancer line and DTP means drug-tolerant persister; higher = less growth inhibition; details: 100 nM; treatment time 6 days
Procedure, shortened: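 Each value is viability relative to vehicle-treated cells, measured as ATP with the CellTiter-Glo 3D Cell Viability Assay. Parental NCI-H2228 cells and drug-tolerant persisters (1000 nM targeted drug, 13 days) in 384-well plates received the 3114-agent TargetMol anti-cancer compound library at 100 nM, or DMSO, and were read 6 days later.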

SMILES | cell viability
C[C@@H]1O[C@@H](O[C@H]2[C@H](Oc3cc(O)c4c(c3)O[C@H](c3ccc(O)cc3)CC4=O)O[C@H](CO)[C@@H](O)[C@@H]2O)[C@H](O)[C@H](O)[C@H]1O [Naringin] | 0.96
Cn1cc(C2=C(c3cn(CCCSC(=N)N)c4ccccc34)C(=O)NC2=O)c2ccccc21 [Ro 31-8220 Mesylate] | 1.04
Nc1ccccc1NC(=O)CCCCCCC(=O)Nc1ccccc1 | 1.09
O=C(NCc1ccc2c(c1)OCO2)c1c(Cl)cccc1Cl | 1.13
C[C@H](CCC(=O)O)[C@H]1CC[C@H]2[C@@H]3C[C@H](O)[C@@H]4C[C@H](O)CC[C@]4(C)[C@H]3CC[C@]12C [Hyodeoxycholic acid] | 0.994
N=C(N)c1ccc(N=NNc2ccc(C(=N)N)cc2)cc1 [Diminazene Aceturate] | 1.02
CCCOc1ccc(/C=C2\SC(=O)NC2=O)cc1 | 1.11
CC1(C)C(=O)N(CCN2CCC(C(=O)c3ccc(F)cc3)CC2)c2ccccc21 | 1.22
NC(=O)Nc1sc(-c2ccc(F)cc2)cc1C(N)=O | 1.07
C[C@@H]1O[C@@H](OC[C@H]2O[C@@H](Oc3c(-c4ccc(O)c(O)c4)oc4cc(O)cc(O)c4c3=O)[C@H](O)[C@@H](O)[C@@H]2O)[C@H](O)[C@H](O)[C@H]1O [Rutin] | 1.07
C=C[C@H]1[C@H](O[C@@H]2O[C@H](CO)[C@@H](O)[C@H](O)[C@H]2O)OC=C2C(=O)OCC[C@]21O [Swertiamarin] | 1.11
Cc1nn(C)c(COc2ccc(N3CCN(S(=O)(=O)N(C)C)CC3)cc2)c1-c1cccc2c(CCCOc3cccc4ccccc34)c(C(=O)O)n(CCN3CCOCC3)c12 | 1.05
CCCC(=O)Nc1ccc(OCC(O)CNC(C)C)c(C(C)=O)c1 (stereo not given) [Acebutolol hydrochloride] | 0.936
CCCCCC=CC(=O)CCc1ccc(O)c(OC)c1 [6-Shogaol] | 1.05
CN1CCN(c2ccc(Nc3cc(-c4cccc(-n5ccc6cc(C7CC7)cc(F)c6c5=O)c4CO)cn(C)c3=O)nc2)CC1 | 1.06
CN(C)C(=O)c1cc2cnc(Nc3ccc(N4CCNCC4)cn3)nc2n1C1CCCC1 [Ribociclib] | 1.07
CC(=O)O[C@]1(C(C)=O)CC[C@H]2[C@@H]3C=C(C)C4=CC(=O)CC[C@]4(C)[C@H]3CC[C@@]21C [Megestrol acetate] | 1.1
NC(=O)c1cnc(-c2ccc(C3(N)CCC3)cc2)c(-c2ccccc2)c1 | 1.02
Nc1nnc(-c2cccc(Cl)c2Cl)c(N)n1 [Lamotrigine] | 1.13
Cc1cc(Nc2cc(CN3CCOCC3)c3nc(C)c(Cc4ccc(Cl)cc4F)n3n2)n[nH]1 [Gandotinib] | 0.984
